According to the supplement of paper PMC7238544:
Structures can show the parent of a compound that is named as a salt. ± gives the standard deviation of the averaged measurements. Some of the results follow.

What was measured:
Settings in all cases: priming compound concentration 100 µM
[1] = test system: hAMSC donor 1; experiment: Hoechst total cell count ratio vs vehicle control; higher = more cells (less toxicity)
[2] = test system: hAMSC donor 2; experiment: as above
[3] = test system: hAMSC donor 1; experiment: transgenic luciferase activity (RLU/mg protein) fold change vs vehicle control (ratio); higher = more transgene expression
[4] = test system: hAMSC donor 2; experiment: as above
[5] = test system: hAMSC donor 1; experiment: transfection efficiency (EGFP+ cells / Hoechst count) fold change vs vehicle control (ratio); hAMSC are human adipose-derived mesenchymal stem cells given an EGFP-luciferase plasmid by lipofection; higher = enhanced transfection
[6] = test system: hAMSC donor 2; experiment: as above
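Throughout, for Hoechst total cell count ratio vs vehicle control: compound added 30 min before Lipofectamine 3000 lipoplex delivery, triplicate-well means expressed against DMSO vehicle control wells of the same 96-well plate.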
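Throughout, for transfection efficiency (EGFP+ cells / Hoechst count) fold change vs vehicle control: compounds added 30 min before Lipofectamine 3000 lipoplex transfection, triplicate means relative to DMSO vehicle wells on the same plate, luciferase RLU normalized to BCA total protein.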
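Throughout, for transgenic luciferase activity (RLU/mg protein) fold change vs vehicle control: compounds in DMSO added 30 min before Lipofectamine 3000 transfection of pEGFP-Luc in 96-well plates, values are means of triplicate wells over DMSO vehicle wells on the same plate.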

| Compound | Hoechst total cell count ratio [1] | Hoechst total cell count ratio [2] | transgenic luciferase activity [3] | transgenic luciferase activity [4] | transfection efficiency [5] | transfection efficiency [6] |
| --- | --- | --- | --- | --- | --- | --- |
| C#C[C@]1(O)CC[C@H]2[C@@H]3CCc4cc(OC)ccc4[C@H]3CC[C@@]21C [Mestranol] | 1.21 ± 0.12 | 0.982 ± 0.026 | 1.2 ± 0.13 | 2.26 ± 0.88 | 0.678 ± 0.19 | 1.29 ± 0.19 |
| Nc1nc2c(ncn2COC(CO)CO)c(=O)[nH]1 [Ganciclovir] | 1.15 ± 0.015 | 1.44 ± 0.17 | 0.993 ± 0.67 | 0.668 ± 0.19 | 1.09 ± 0.36 | 1.02 ± 0.27 |
| CC1CCN(CCCC(=O)c2ccc(F)cc2)CC1 [Methylperone hydrochloride] | 1.22 ± 0.12 | 1.13 ± 0.15 | 0.874 ± 0.21 | 0.814 ± 0.21 | 1.15 ± 0.19 | 0.846 ± 0.23 |
| N[C@@H](Cc1cc(I)c(Oc2cc(I)c(O)c(I)c2)c(I)c1)C(=O)O [L-Thyroxine] | 1.01 ± 0.13 | 0.46 ± 0.026 | 0.957 ± 0.64 | 0.352 ± 0.041 | 1.66 ± 0.62 | 1.21 ± 0.1 |
| CCCCNC(=O)NS(=O)(=O)c1ccc(C)cc1 [Tolbutamide] | 1.19 ± 0.021 | 1.68 ± 0.34 | 0.755 ± 0.21 | 0.305 ± 0.053 | 1.04 ± 0.28 | 0.74 ± 0.11 |
| CC(C)NCC(O)c1ccc(O)c(O)c1 (centres undefined) [Isoproterenol hydrochloride] | 1.21 ± 0.19 | 1.26 ± 0.11 | 0.539 ± 0.32 | 0.793 ± 0.16 | 1.23 ± 0.25 | 1.04 ± 0.25 |
| CC(=O)OCC(=O)[C@@]12OC3(CCCC3)O[C@@H]1C[C@H]1[C@@H]3CCC4=CC(=O)C=C[C@]4(C)[C@@]3(F)[C@@H](O)C[C@@]12C [Amcinonide] | 1.02 ± 0.017 | 1.19 ± 0.12 | 16.9 ± 3.2 | 4.17 ± 0.95 | 1.7 ± 0.48 | 2.05 ± 0.061 |
| O=C1[C@H](CC[C@H](O)c2ccc(F)cc2)[C@@H](c2ccc(O)cc2)N1c1ccc(F)cc1 [Ezetimibe] | 1.12 ± 0.15 | 0.473 ± 0.18 | 0.552 ± 0.14 | 1.28 ± 0.17 | 0.399 ± 0.13 | 1.43 ± 0.33 |
| COC(=O)[C@H](c1ccccc1Cl)N1CCc2sccc2C1 [Clopidogrel] | 1.38 ± 0.098 | 1.87 ± 0.066 | 1.35 ± 0.5 | 0.63 ± 0.078 | 0.857 ± 0.062 | 0.692 ± 0.017 |
| O=[N+]([O-])c1cccc2cn[nH]c12 [7-Nitroindazole] | 1.18 ± 0.08 | 1.18 ± 0.075 | 1.29 ± 1.6 | 1.02 ± 0.27 | 0.827 ± 0.12 | 0.732 ± 0.11 |
| CCn1cc(C(=O)O)c(=O)c2cc(F)c(N3CCNCC3)cc21 [Norfloxacin] | 1.46 ± 0.24 | 1.93 ± 0.41 | 1.52 ± 0.64 | 1.31 ± 0.48 | 0.981 ± 0.15 | 1.41 ± 0.23 |
| C[C@@H]1C[C@H]2[C@@H]3C[C@H](F)C4=CC(=O)C(Cl)=C[C@]4(C)[C@@]3(F)[C@@H](O)C[C@]2(C)[C@@]1(O)C(=O)CO [Halometasone monohydrate] | 0.965 ± 0.059 | 2.34 ± 0.25 | 3.35 ± 0.38 | 1.57 ± 0.061 | 0.897 ± 0.27 | 0.552 ± 0.045 |
| Nc1nnc(-c2cccc(Cl)c2Cl)c(N)n1 [Lamotrigine] | 0.939 ± 0.066 | 1.11 ± 0.073 | 1.41 ± 0.18 | 0.899 ± 0.25 | 0.966 ± 0.19 | 1.18 ± 0.15 |
| Cc1noc(NS(=O)(=O)c2ccc(N)cc2)c1C [Sulfisoxazole] | 1.22 ± 0.036 | 0.815 ± 0.32 | 0.936 ± 0.21 | 0.493 ± 0.083 | 1.12 ± 0.21 | 1.09 ± 0.22 |
| CCOC(=O)OC(C)OC1=C(C(=O)Nc2ccccn2)N(C)S(=O)(=O)c2ccccc21 (centres undefined) [Ampiroxicam] | 1.48 ± 0.26 | 1.15 ± 0.082 | 0.836 ± 0.12 | 0.577 ± 0.081 | 1.16 ± 0.16 | 0.543 ± 0.0058 |
| O=C(O)CCc1nc(-c2ccccc2)c(-c2ccccc2)o1 [Oxaprozin] | 1.21 ± 0.046 | 1.13 ± 0.07 | 1.65 ± 0.34 | 1.02 ± 0.53 | 1.18 ± 0.17 | 0.778 ± 0.22 |
| C[C@H]1O[C@@H](O[C@H]2[C@@H](O)C[C@H](O[C@H]3[C@@H](O)C[C@H](O[C@H]4CC[C@@]5(C)[C@H](CC[C@@H]6[C@@H]5C[C@@H](O)[C@]5(C)[C@@H](C7=CC(=O)OC7)CC[C@]65O)C4)O[C@@H]3C)O[C@@H]2C)C[C@H](O)[C@@H]1O [Digoxin] | 0.268 ± 0.024 | 0.29 ± 0.015 | 0.322 ± 0.29 | 0.00326 ± 0.00031 | 0.321 ± 0.23 | 0.0998 ± 0.02 |
| Cc1nnc(SCC2=C(C(=O)O)N3C(=O)[C@@H](NC(=O)Cn4cnnn4)[C@H]3SC2)s1 [Cefazolin sodium] | 1.29 ± 0.14 | 1.03 ± 0.16 | 1.6 ± 0.58 | 0.939 ± 0.41 | 1.29 ± 0.11 | 1.43 ± 0.16 |
| Cc1onc(-c2c(Cl)cccc2Cl)c1C(=O)N[C@@H]1C(=O)N2[C@@H]1SC(C)(C)[C@@H]2C(=O)O [Dicloxacillin sodium] | 1.47 ± 0.27 | 1.56 ± 0.48 | 0.959 ± 0.44 | 0.913 ± 0.32 | 0.512 ± 0.069 | 0.894 ± 0.15 |
| N=C(N)NC(=O)c1nc(Cl)c(N)nc1N [Amiloride hydrochloride hydrate] | 1.61 ± 0.21 | 1.07 ± 0.15 | 1.14 ± 0.44 | 0.64 ± 0.085 | 1.19 ± 0.37 | 1.27 ± 0.13 |
| CCOC(=O)C1=C(C)NC(C)=C(C(=O)OC)C1c1cccc(Cl)c1Cl (centres undefined) [Felodipine] | 0.306 ± 0.11 | 0.207 ± 0.0049 | 0.379 ± 0.32 | 0.392 ± 0.21 | 1.34 ± 0.27 | 0.375 ± 0.17 |
| COc1cc(C)c(/C=C/C(C)=C/C=C/C(C)=C/C(=O)O)c(C)c1C [Acitretin] | 1.71 ± 0.29 | 1.95 ± 0.45 | 0.158 ± 0.051 | 0.333 ± 0.04 | 0.174 ± 0.042 | 0.372 ± 0.12 |
| COCCOC(=O)C1=C(C)NC(C)=C(C(=O)OC(C)C)C1c1cccc([N+](=O)[O-])c1 (centres undefined) [Nimodipine] | 1.14 ± 0.058 | 0.914 ± 0.15 | 0.327 ± 0.034 | 0.815 ± 0.12 | 0.866 ± 0.14 | 1.07 ± 0.2 |
| CC(C)/N=c1\cc2n(-c3ccc(Cl)cc3)c3ccccc3nc-2cc1Nc1ccc(Cl)cc1 [Clofazimine] | 0.959 ± 0.067 | 0.931 ± 0.071 | 0.805 ± 0.38 | 0.573 ± 0.066 | 0.575 ± 0.28 | 0.542 ± 0.026 |
